# Experimental data reported in PubChem BioAssay AID720708 (National Center for Advancing Translational Sciences (NCATS), 2013).
# Out of some 360,000 compounds screened, about 660 (0.18%) were called active. The inconclusive results got no clear call from the source; some entries with a clear call stand among them for comparison. Calls follow the shape of the dose curve; as a rule, active = well fitted inhibition curve with a large enough effect; inconclusive = small, poorly fitted or top-dose-only effect; inactive = no such curve, though single readings can be large or run the other way. Potencies of inconclusive entries are left out as doubtful fits.
# Target: Rap guanine nucleotide exchange factor 4 (Homo sapiens) (UniProt Q8WZA2)
# Assay: qHTS for Antagonist of cAMP-regulated guanine nucleotide exchange factor 2 (EPAC2): primary screen; also: nearly all actives have a fitted effect of over 45% in size
# Conditions: EPAC2 GEF exchange of Rap1B-BODIPY-GDP, fluorescence; activity, negative = inhibition: at 114 µM (top of the series) unless noted
# % is scaled to controls: 0 for no effect and ±100 for the full control effect; potency is read from the fitted curve at half-maximal effect; tags tell the direction and shape of the fitted curve.
# UniProt Q8WZA2, sequence (Q8WZA2 whole entry, looked up): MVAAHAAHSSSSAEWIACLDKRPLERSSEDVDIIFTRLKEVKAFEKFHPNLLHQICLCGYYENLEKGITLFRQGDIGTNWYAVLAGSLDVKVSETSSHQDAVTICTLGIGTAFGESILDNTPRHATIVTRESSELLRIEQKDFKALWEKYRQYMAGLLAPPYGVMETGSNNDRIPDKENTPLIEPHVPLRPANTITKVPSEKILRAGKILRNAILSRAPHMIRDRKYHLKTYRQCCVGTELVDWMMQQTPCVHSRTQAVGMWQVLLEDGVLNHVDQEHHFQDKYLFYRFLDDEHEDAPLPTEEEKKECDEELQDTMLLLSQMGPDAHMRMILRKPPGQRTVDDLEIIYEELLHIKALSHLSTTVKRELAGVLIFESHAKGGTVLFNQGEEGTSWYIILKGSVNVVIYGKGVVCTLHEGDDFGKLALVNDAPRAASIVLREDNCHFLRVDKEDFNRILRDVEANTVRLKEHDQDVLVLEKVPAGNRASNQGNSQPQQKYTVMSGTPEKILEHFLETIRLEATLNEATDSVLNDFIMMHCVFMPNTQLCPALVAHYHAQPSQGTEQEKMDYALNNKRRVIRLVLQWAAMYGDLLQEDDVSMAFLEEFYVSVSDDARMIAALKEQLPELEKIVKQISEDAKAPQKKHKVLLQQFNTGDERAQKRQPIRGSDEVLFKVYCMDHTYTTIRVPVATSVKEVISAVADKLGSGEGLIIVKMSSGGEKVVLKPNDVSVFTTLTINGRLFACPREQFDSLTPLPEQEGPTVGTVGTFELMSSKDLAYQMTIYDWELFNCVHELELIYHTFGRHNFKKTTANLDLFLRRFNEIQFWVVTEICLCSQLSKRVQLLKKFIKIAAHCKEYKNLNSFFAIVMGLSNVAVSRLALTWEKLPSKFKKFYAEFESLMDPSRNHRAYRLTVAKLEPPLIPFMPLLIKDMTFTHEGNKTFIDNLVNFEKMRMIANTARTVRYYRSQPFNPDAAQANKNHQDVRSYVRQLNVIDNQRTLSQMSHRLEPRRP
Compound,Potency,"activity, negative = inhibition"
O=C(O)c1cc(-c2ccc(/C=C3/SC(=S)N(Cc4ccccc4)C3=O)o2)ccc1Cl,"inconclusive [inhibitor, partial curve]",–
COC(=O)C1=C2c3[nH]c4ccccc4c3CCN2C(=O)CC1,"inconclusive [inhibitor, partial curve]",–
O=C1C=C(c2ccc(C(=O)O)cc2)C[C@@H](c2ccc(Cl)cc2)C1,"inconclusive [inhibitor, full curve]",–
CC1=C(C(=O)OCc2ccccc2)C(c2ccccc2OS(=O)(=O)c2ccc(C)cc2)NC(=O)N1CCCC(=O)O (configuration not stated),"inconclusive [inhibitor, full curve]",–
Cc1cc(C)n(-c2ccc(C(=O)Nc3cccnc3)cc2)n1,–,inactive: 7.55%
Cc1nn(C(=O)c2cccc([N+](=O)[O-])c2)c(C)c1Br,–,inactive: -1.5%
Fc1ccccc1Nc1nc(Cl)nc(Cl)n1,–,inactive: 8.54%
COC(=O)c1cccc(CSc2nc(-c3ccccc3)c(C#N)c(=O)[nH]2)c1,"inconclusive [inhibitor, partial curve]",–
Cc1ccc(Nc2nc(=O)c3cccnc3s2)c(Br)c1,"inconclusive [inhibitor, partial curve]",–
COc1cccc(CN2C(=O)c3ccccc3S2(=O)=O)c1,"inconclusive [inhibitor, partial curve]",–
Cc1ccc(-c2nc(C#N)c(NCCCn3ccnc3)o2)cc1,"inconclusive [inhibitor, single point]",–
CSc1ccc(CN(C)C(=O)C(c2ccccc2)c2ccccc2)cc1,"inconclusive [inhibitor, partial curve]",–
C=C[C@]1(C)C[C@@H](OC(=O)CSCCN(CC)CC)[C@]2(C)C(C)CC[C@]3(CCC(=O)[C@H]32)[C@@H](C)[C@@H]1O (some centres not stated),"inconclusive [inhibitor, single point]",–
COc1ccc(CN2C(=O)CCC2(C)c2nnnn2-c2ccc3c(c2)OCCO3)cc1OC (configuration not stated),–,inactive: 1.01%
Cn1nc(C(=O)OCC(=O)Nc2cccc(S(=O)(=O)N3CCCC3)c2)c2ccccc2c1=O,"inconclusive [inhibitor, full curve, poor fit]",–
O=Cc1cn(CCOc2ccccc2F)c2ccccc12,–,inactive: -14.7%
CC1CC(C)CN(C(=O)c2ccc3c(c2)N(Cc2ccccc2)CCS3)C1 (configuration not stated),"inconclusive [inhibitor, partial curve]",–
COc1ccc(C(C)=O)cc1CC(=O)N(Cc1ccccc1)c1ccccc1,–,inactive: -22.1%
CC1(C)CN(c2ccc(Br)cc2Br)C1=O,"inconclusive [inhibitor, single point]",–
C(=N\N(Cc1ccccc1)c1ccccc1)/c1cccnc1,"inconclusive [inhibitor, partial curve]",–
Cc1c(OCc2ccc(C(=O)O)cc2)ccc2c(-c3ccccc3)cc(=O)oc12,"inconclusive [inhibitor, partial curve]",–
CC(C)(C)c1ccc(C(O)c2ncc(-c3cccc(F)c3)[nH]2)cc1 (configuration not stated),"inconclusive [inhibitor, full curve, poor fit]",–
COC(=O)c1ccc(NCc2cc(O)ccc2O)cc1O,–,inactive: -0.756%
CC(C)C[C@@H](COc1ccccc1)N1CCN(Cc2ccccc2)CCC1=O,"inconclusive [inhibitor, partial curve]",–

Compound,Potency,"activity, negative = inhibition"
O=C(O)c1[nH]c2ccccc2c1C(c1cc(Br)ccc1O)c1c(C(=O)O)[nH]c2ccccc12,–,inactive: -19.8%
CN1C/C(=C\c2ccc(N3CCOCC3)cc2)C(=O)/C(=C/c2ccc(N3CCOCC3)cc2)C1,–,inactive: 7.65%
CCc1nc2ccccc2n1Cc1ccc(F)cc1,–,inactive: -21.8%
CCN(CC)C(=O)C1=C(C)N(CCC2=CCCCC2)C(=O)C(CC(=O)NC(c2ccccc2)c2ccccc2)C1 (configuration not stated),–,inactive: -8.35%
COC(=O)c1ccc(CSc2nc3ccccc3c(=O)n2N)cc1,"inconclusive [inhibitor, single point]",–
CCOCCn1c(COc2ccc(C)cc2)nc2ccccc21,"inconclusive [inhibitor, single point]",–
CN(/N=C/c1ccc2c(c1)OCO2)c1ccccc1,–,inactive: -1.05%
COc1ccc(OCC(=O)Nc2c(C(=O)N3CCN(C)CC3)oc3ccccc23)cc1,–,inactive: -10.2%
CC(=O)Nc1ccc(Sc2ncccc2C(=O)Nc2ccc(OC(F)(F)F)cc2)cn1,–,inactive: 15.1%
Cc1ccccc1-c1cc2nc(NCCN3CCNC3=O)n(C)c(=O)c2s1,"inconclusive [inhibitor, partial curve]",–
COc1ccc(C=O)cc1COc1ccccc1F,"inconclusive [inhibitor, partial curve]",–
CCOC(=O)N1CCN(/C=C(\C#N)c2nc3ccccc3s2)CC1,–,inactive: -3.53%
COc1ccc(-c2ccc(CN3C(CC(C)C)C(=O)N(Cc4cn(CC5CCCCC5)nn4)CCS3(=O)=O)cc2)cc1 (configuration not stated),–,inactive: 4.18%
CC(=O)NC(c1cccs1)c1cc(Cl)c2ccccc2c1O (configuration not stated),"inconclusive [inhibitor, full curve]",–
COc1cc2c(cc1OCc1ccccc1)/C(=C/C(=O)OCc1ccccc1)OC2,"inconclusive [inhibitor, full curve]",–
O=C(/C=C/c1ccccc1)COC(=O)c1ccccc1,"inconclusive [inhibitor, partial curve]",–
CCCCc1c(-c2ccc(Br)cc2)ncn1CCc1ccccc1OC,"inconclusive [inhibitor, partial curve]",–
COc1ccc(-c2coc3c(C)c4oc(=O)c(CC(=O)O)c(C)c4cc23)cc1,"inconclusive [inhibitor, single point]",–
CC(=O)c1cnc2c(-c3ccccc3)c(C(F)(F)F)nn2c1C,"inconclusive [inhibitor, partial curve]",–
Cc1ccccc1-c1csc(C(O)(c2ccccc2)C(F)(F)F)n1 (configuration not stated),"inconclusive [inhibitor, partial curve]",–
COc1ccccc1C1CC(c2cccs2)=Nc2ccccc2S1 (configuration not stated),–,inactive: -4.45%
Cc1ccccc1S(=O)(=O)NC(=O)C1(C)CCN1C(=O)C(C)(C)c1ccccc1 (configuration not stated),–,inactive: 7.47%
CCC1CN(S(=O)(=O)c2cc(-c3cc(C)no3)ccc2OC)c2cc(C)ccc2O1 (configuration not stated),"inconclusive [inhibitor, full curve]",–
COc1ccc(C2OC(=O)CC2C(=O)NCc2ccc(Cl)cc2)cc1OC (configuration not stated),–,inactive: -2.79%

Compound,Potency,"activity, negative = inhibition"
CCSc1nc2ccccc2c(=O)n1C1CCOC(C)(C)C1 (configuration not stated),active: 39.8 µM,–
Cn1c(CCN2CCCCC2)nc2cc(NS(=O)(=O)c3ccc(F)cc3)ccc21,–,inactive: -1.73%
O=C(OCc1c(-c2ccccc2)ncc2ccccc12)c1ccccc1C(F)(F)F,"inconclusive [inhibitor, single point]",–
CC(=O)c1sc(NC(=O)c2ccc(Cl)cc2)nc1C,–,inactive: 8.25%
N#C/C(=C/c1ccc(O)c(O)c1)C(=O)NCc1ccc(Cl)cc1,–,inactive: 0.345%
CC(C)C(NC(=O)c1ccccc1)C(=O)N1CCN(C/C=C/c2ccccc2)CC1 (configuration not stated),–,inactive: -4.88%
CC1(C(=O)NCc2ccccc2Br)CCN1Cc1ccccc1OC(F)F (configuration not stated),"inconclusive [inhibitor, full curve]",–
Cc1ccc(SC[C@H](Cc2ccccc2)N2CCN(CC(C)C)CCC2=O)cc1,–,inactive: -17.4%
COCCNc1nc(Oc2ccccc2)c2sccc2n1,"inconclusive [inhibitor, full curve]",–
CCOC(=O)CC1(C)Sc2ccccc2N1S(=O)(=O)c1ccc(C)cc1 (configuration not stated),"inconclusive [inhibitor, full curve]",–
O=C(O)/C=C/C(=O)Nc1cc(F)ccc1F,–,inactive: 4.67%
O=C1CC2(CCCC2)Oc2ccc(F)cc21,"inconclusive [inhibitor, single point]",–
O=C(Nc1ccc2c(c1)COC2=O)c1ccc(Cl)c(Cl)c1,–,inactive: -5.32%
Cc1ccc(C)c(Cn2nnc3c(=O)[nH]c(C4CCCN(C(=O)C5CCCCC5)C4)nc32)c1 (configuration not stated),"inconclusive [inhibitor, partial curve]",–
N#Cc1nc(Cc2cccc3ccccc23)oc1NCc1ccc2c(c1)OCO2,"inconclusive [inhibitor, partial curve]",–
CCOC(=O)C1CC(=O)c2ccccc2C1c1ccccc1 (configuration not stated),"inconclusive [inhibitor, partial curve]",–
COCCNc1nc(-c2ccc(OC)cc2C)c2sc(-c3ccccc3)cc2n1,"inconclusive [inhibitor, full curve]",–
Cn1ccc(=Nc2ccc(NC(=O)c3ccc(N=c4ccn(C)c5ccc([N+](=O)[O-])cc45)cc3)cc2)cc1,active: 22.4 µM,–
CN(CC(=O)Nc1ccc(Cl)c(Cl)c1)C(=O)CNC(=O)Cc1ccccc1,"inconclusive [inhibitor, single point]",–
O=C(O)CN1C(=O)/C(=C\c2cccc(OCc3ccc(Cl)cc3Cl)c2)SC1=S,"inconclusive [inhibitor, partial curve]",–
Cc1cc2c(=O)oc(-c3ccccc3Br)nc2s1,"inconclusive [inhibitor, full curve, poor fit]",–
Cc1ccc2c(c1)C(c1ccncc1)=NNC(c1ccc(F)cc1)=N2,"inconclusive [inhibitor, single point]",–
COc1ccc(C(C)(O)c2nc(-c3cccs3)cs2)cc1 (configuration not stated),"inconclusive [inhibitor, partial curve]",–
COc1ccc(CCNCCC(c2ccccc2)c2ccccc2)cc1OC,–,inactive: 10.3%
